Among all 2,100 compounds or so, about 670 (32%) were called active. The inconclusive results got no clear call from the source; some entries with a clear call stand among them for comparison. Calls follow the shape of the dose curve; as a rule, active = well fitted inhibition curve with a large enough effect; inconclusive = small, poorly fitted or top-dose-only effect; inactive = no such curve, though single readings can be large or run the other way. A potency beside an inconclusive call is a rough fit, not a confirmed value.
Assay: CMV-Luciferase Counterscreen for Inhibitors of ATXN expression; also: nearly all actives have a fitted effect of over 55% in size
Settings: HEK-293 CMV-luciferase reporter, luminescence, 24 h; series mostly up to 57.5 µM; activity change, negative = inhibition: at the top concentration
Text: PI: Daniel Scoles Ph.D. University of Utah School of Medicine, Salt Lake City, Utah MLPCN Grant: NS073009 Spinocerebellar ataxia type 2 (SCA2) is a multisystem neurodegenerative disease caused by a dominantly acting mutation leading to expansion of a polyQ domain in the ataxin-2 protein (ATXN2). SCA2 patients develop progressive ataxia and later lose function in other neuronal systems. Prominent parkinsonian signs develop in some patients. Like many neurodegenerative disorders, no symptomatic or disease-modifying treatments are known. The primary objective of the proposed research is to identify compounds inhibiting ATXN2 expression and to test them for efficacy in SCA2 mouse models. We have developed a cell-based assay paired with an in vivo mouse model using identical luciferase expression constructs. This approach takes advantage of an ATXN2-luciferase transgene, with the luciferase gene flanked by the upstream and downstream portions of the ATXN2 gene. Here we describe a 5-7 dose quantitative high thoroughput screen (qHTS) for compounds lowering ATXN2 expression. We screened the NIH Molecular Libraries Small Molecule Repository (MLSMR) and NCGC's mechanistically annotated (MIPE) and drug repurposing (NPC) collections of compounds for lowering expression of an ATXN2-luciferase reporter in HEK-293 cells. The assay is a multiplexed cell viability assay to ensure target reduction in the absence of cytotoxicity. Secondary qHTS assays included a CMV-luciferase reporter expressed in HEK-293 cells as well as a biochemical assay using recombinant luciferase to detect inhibitors of the reporter enzyme. Compounds that inhibit ATXN2 expression but is not cytotoxic were selected for confirmatory and secondary screens.
PROTOCOL TABLE (as described by Inglese J, Shamu CE and Guy RK. 2007) SEQUENCE No. (e.g., 1, 2, 3, etc.); PARAMETER (e.g., Cells, Incubation, Reagent, etc.); VALUE; DESCRIPTION. 1; Cells; 4 uL; white, solid bottom, 1536-well Greiner assay plate. 2; Incubation; 2 hr; 37 degree C in 5% humidified CO2. 3; Compounds; 23 nL; Kalypsis pintool (Wako USA) equipped with a 1536-well pin head. 4; Incubation; 24 hr; 37 degree C in 5% humidfified CO2. 5; Reagent; 1 uL; Gly-Phe-7-Amino-4-trifluoromethylcoumarin. 6; Incubation; 30 min; 37 degree C in 5% humidfified CO2. 7; Detection; Fluorescence; Viewlux plate reader (PerkinElmer). 8; Reagent; 3 uL; SteadyGlo luciferase solution (Promega). 9; Incubation; 5 min; room temperature. 10; Detection; Luminescence; ViewLux plate reader (PerkinElmer). NOTES (numbers refer to Sequence numbers above) 1. HEK-293 cells expressing CMV-luciferase reporter (designated as SC cells) were suspended in phenol-red free DMEM and dispensed in assay plates using a Multidrop Combi dispenser (Thermo Fisher Scientific). 2. Assay plates were incubated. Evaporation was prevented by covering assay plates with metal lids containing holes to allow gas diffusion. 3. Compounds were added in a dose response manner with the final concentrations of 57, 11.4, 2.28, 0.46, 0.091, 0.018, 0.0037 uM. Vehicle-only plates, with DMSO being pin-transferred to columns 5-48, were inserted uniformly at the beginning and the end of each library to monitor and record any shifts in assay performance. 5. 125 uM Gly-Phe-7-Amino-4-trifluoromethylcoumarin (MP Biomedicals) working concentration was used at a final concentration of 25 uM. 7. To assess cell viability; the assay plates were read using the ViewLux high-throughput CCD imager (PerkinElmer), wherein single end-point fluorescence measurement was acquired (excitation 405/10; emission 540/25 nm). 8. Detection reagent SteadyGlo Luciferase (Promega) was added to the assay plate. 10. Luminescence is then measured on the ViewLux imager equipped with a clear emission filter using a 2 sec exposure. […]
% is scaled to controls: 0 for no effect and ±100 for the full control effect; potency is read from the fitted curve at half-maximal effect; tags tell the direction and shape of the fitted curve.

Row | SMILES | activity change, negative = inhibition | Potency
1 | COc1ccc(-c2cc(NC=O)c3ncc(-c4cccc(C(=O)NCCN(C)C)c4)n3c2)cc1 | inactive: -9.37% | 
2 | Cn1c(CCc2nc3ccccc3[nH]2)nnc1SCC#N | inactive: -22.2% | 
3 | O=C(CNC(=O)c1ccccc1F)N/N=C/c1cc(Br)ccc1OC(=O)/C=C/c1ccco1 |  | active: 12.6 µM
4 | CN(C)CCNCCCNc1c2ccccc2nc2cccc([N+](=O)[O-])c12 |  | inconclusive: 0.112 µM [inhibitor, full curve, poor fit]
5 | Cc1cc(C)cc(OCC(=O)NNC(=S)NC(=O)C2CC2)c1 |  | inconclusive: 3.16 µM [inhibitor, partial curve, poor fit]
6 | COCCCNCCCOc1ccc(Cl)cc1C(C)(C)C |  | active: 22.4 µM
7 | O=C(N/N=C/c1ccccc1O)c1cccc(C(F)(F)F)c1 |  | active: 0.501 µM
8 | C/C(=N\NC(=O)c1cc(C2CC2)nc2ccccc12)c1ccc(O)cc1O |  | inconclusive: 4.47 µM [inhibitor, partial curve, poor fit]
9 | O=[N+]([O-])c1ccc2[nH]cc(S(=O)(=O)N3CCN(c4cccc(Cl)c4)CC3)c2c1 |  | inconclusive: 20 µM [inhibitor, single point]
10 | Oc1ccc(N2CCN(c3ccnc4cc(Cl)ccc34)CC2)cc1 |  | active: 11.2 µM
11 | CCn1cc(CN2CCC(C(=O)Nc3cccc(-c4cccc(Cl)c4)c3)CC2)c(C)n1 |  | inconclusive: 15.8 µM [inhibitor, partial curve, poor fit]
12 | CCN(CC(=O)Nc1cccc(OC)c1)CC(=O)Nc1ccc(Br)c(C)c1 |  | inconclusive: 25.1 µM [inhibitor, partial curve]
13 | COc1cccc(Nc2nc(C(N)Cc3ccc(F)cc3)cs2)n1 (stereo unspecified) |  | inconclusive: 14.1 µM [inhibitor, partial curve, poor fit]
14 | C[n+]1c2n(c3ccccc31)N=C(c1ccccc1)CS2 |  | inconclusive: 5.01 µM [inhibitor, full curve, poor fit]
15 | C=CCc1cccc(CNc2nc3ccccc3n2C(C)C)c1O |  | inconclusive: 35.5 µM [inhibitor, single point]
16 | CC(=O)c1cccc(-c2ccnc3c2CC(C(=O)Nc2ccc(F)c(Cl)c2)O3)c1 (stereo unspecified) |  | inconclusive: 4.47 µM [inhibitor, partial curve, poor fit]
17 | O=C(N/N=C/c1ccc([N+](=O)[O-])s1)c1ccccc1 |  | active: 7.94 µM
18 | O=C(N/N=C/c1cc(Br)cc([N+](=O)[O-])c1O)c1ccc(NC(=O)c2ccc(F)cc2)cc1 |  | active: 3.16 µM
19 | Cc1cc(Br)c(OCc2ccc(C(=O)N/N=C3\CC4CC=CC34)cc2)c(Br)c1 (stereo unspecified) |  | active: 28.2 µM
20 | O=C(Nc1cccc(-c2cccc(Cl)c2)c1)C1CCN(C2CCC2)CC1 |  | inconclusive: 25.1 µM [inhibitor, single point]
21 | C=CS(=O)(=O)c1c2cc(OC)ccc2nc2ccc(OC)cc12 | inactive: -18.3% | 
22 | CCOc1ccc2[nH]c3c(NCCC(C)C)ncnc3c2c1 |  | inconclusive: 25.1 µM [inhibitor, partial curve]

Row | SMILES | activity change, negative = inhibition | Potency
23 | COc1cccc(-c2nn(C)c3sc(C(=O)NCCCN(C)Cc4ccccc4)cc23)c1 |  | inconclusive: 14.1 µM [inhibitor, partial curve, poor fit]
24 | O=C1N(c2ccccc2)C[C@@H]2C[C@@H](c3cc4ccccc4o3)N3CCC[C@@]123 |  | inconclusive: 3.16 µM [inhibitor, full curve, poor fit]
25 | CC(=O)NC(c1ccc(C)cc1)c1cc(Cl)c2cccnc2c1O (stereo unspecified) |  | inconclusive: 2.24 µM [inhibitor, full curve, poor fit]
26 | CCCCC(=O)NC(c1ccccc1OC)c1ccc2cccnc2c1O (stereo unspecified) |  | active: 2.82 µM
27 | CCCC(=O)Nc1c(C(=O)OCC)[nH]c2ccccc12 | inactive: -4.94% [at 11.4 µM] | 
28 | CC1=CC(C)(C)Nc2ccc(OC(=O)CN3C(=O)C4CCCCC4C3=O)cc21 (stereo unspecified) |  | inconclusive: 17.8 µM [inhibitor, partial curve, poor fit]
29 | O=C(Nc1nc(-c2ccc(F)c(F)c2)cs1)Nc1ccc(F)cc1F | inactive: 6.09% [at 11.4 µM] | 
30 | CCOC(=O)Oc1c(OC)cc(C(=O)O[C@@H]2C[C@@H]3CN4CCc5c([nH]c6cc(OC)ccc56)[C@H]4C[C@@H]3[C@H](C(=O)OC)[C@H]2OC)cc1OC |  | active: 28.2 µM
31 | NC(Cc1ccccc1)c1csc(Nc2nccc(C(F)(F)F)n2)n1 (stereo unspecified) | inactive: 5.13% | 
32 | CC1(C)c2[nH]c3ccccc3c2C[C@H]2C(=O)N(Cc3ccccc3F)C(=O)N21 |  | active: 17.8 µM
33 | Oc1c(C(Nc2cccc(C(F)(F)F)c2)c2ccncc2)ccc2cccnc12 (stereo unspecified) |  | active: 3.98 µM
34 | COc1ccc(NC(=S)N(CCCN2CCOCC2)Cc2cn(C)c3ccccc23)cc1 | inactive: -15.1% | 
35 | COc1cccc(CNc2nc3cc(-c4ccccc4)sc3c(=O)n2C)c1OC |  | inconclusive: 14.1 µM [inhibitor, partial curve, poor fit]
36 | CC1(C)CCN2CCC(C)(C)c3c(O)ccc1c32 |  | inconclusive: 3.16 µM [inhibitor, partial curve]
37 | O=C(c1ccc(CS(=O)Cc2ccccc2Cl)o1)N1CCN(c2cccc(Cl)c2)CC1 (stereo unspecified) |  | active: 20 µM
38 | COc1cc(C(=O)N/N=C(\Cc2ncc[nH]2)c2ccccc2)cc(OC)c1OC |  | inconclusive: 3.98 µM [inhibitor, single point]
39 | Cc1ccc(-c2nnc(N3CCC(C)CC3)c3ccccc23)cc1C |  | inconclusive: 3.98 µM [inhibitor, single point]
40 | Cc1ccc(-c2nc3ccc(Cl)cn3c2CC(C)(C)C)cc1 | inactive: -2.84% [at 11.4 µM] | 
41 | COc1ccccc1N(CC(=O)N/N=C(\C)c1ccccc1O)S(=O)(=O)c1ccc(C)cc1 |  | active: 11.2 µM
42 | OC(c1ccccc1)(c1nc(/C=C/c2ccc(C(F)(F)F)cc2)cs1)C(F)(F)F (stereo unspecified) |  | inconclusive: 31.6 µM [inhibitor, single point]
43 | COc1ccc(OC)c(C(=O)/C=C/c2ccccc2C(F)(F)F)c1 | inactive: -8.72% [at 11.4 µM] | 
44 | Cc1ccc(S(=O)(=O)Nc2cc(Cl)c(O)c3ncccc23)cc1 |  | inconclusive: 7.08 µM [inhibitor, partial curve, poor fit]

Row | SMILES | activity change, negative = inhibition | Potency
45 | CCc1nc2ccc(C(=O)Nc3cccc(NS(C)(=O)=O)c3)cn2c1N(CC)Cc1cccc(Br)c1 |  | active: 31.6 µM
46 | O=C(N/N=C/c1ccc(O)cc1O)c1ccc(NC(=O)C2CCCCC2)cc1 |  | active: 12.6 µM
47 | O=C(Nc1nc(-c2ccccn2)cs1)c1cc(Cl)ccc1[N+](=O)[O-] |  | inconclusive: 1.58 µM [inhibitor, full curve, poor fit]
48 | COc1cc([C@@H]2c3cc4c(cc3[C@@H](O[C@@H]3O[C@@H]5CO[C@@H](C)O[C@H]5[C@H](O)[C@H]3O)[C@H]3COC(=O)[C@H]23)OCO4)cc(OC)c1O |  | inconclusive: 0.447 µM [inhibitor, full curve, poor fit]
49 | Oc1cccc(C(Nc2nccs2)c2ccc3cccnc3c2O)c1 (stereo unspecified) |  | active: 2.82 µM
50 | COc1ccc(Cc2nnc(N/N=C/c3ccccc3O)[nH]c2=O)cc1OC |  | active: 1.41 µM
51 | CCOC(=O)c1c(C)sc2c1N(C(=O)CN(CC)CC)c1cc(Cl)ccc1S2 |  | inconclusive: 31.6 µM [inhibitor, single point]
52 | COc1cc2ccnc(Cc3cccc(OC)c3OC)c2cc1OC |  | inconclusive: 3.16 µM [inhibitor, partial curve, poor fit]
53 | Cn1c2c(c(=O)n(C)c1=O)C(C(F)(F)F)(C(F)(F)F)N=C(CCC1CCCCC1)N2 |  | inconclusive: 28.2 µM [inhibitor, single point]
54 | Cn1c(=O)c2cc(NC(=O)Nc3cccnc3)ccc2n1Cc1ccc(Cl)cc1 | inactive: -24% | 
55 | Cc1cnc(C(=O)NNC(=O)c2ccc(Br)cc2)cn1 |  | inconclusive: 12.6 µM [inhibitor, partial curve]
56 | Cc1ccc(OCCn2cc(/C=N/NC(=O)c3ccncc3)c3ccccc32)cc1 |  | inconclusive: 25.1 µM [inhibitor, single point]
57 | CCc1nc2c(OCCC3CCCCC3)cccn2c1N(C=O)Cc1ccc(OC)cc1 |  | inconclusive: 22.4 µM [inhibitor, partial curve, poor fit]
58 | CCOC(=O)c1cnc(-n2nc(C)cc2C)nc1NC1CCCC1 |  | active: 1.78 µM
59 | CCc1noc(C)c1C(=O)N1CCSC1=Nc1cccc(Cl)c1C |  | inconclusive: 39.8 µM [inhibitor, single point]
60 | CCC(C)Sc1cc(C(F)(F)F)c(C(=O)Nc2ccc(Cl)cc2)cn1 (stereo unspecified) |  | inconclusive: 3.55 µM [inhibitor, single point]
61 | Nc1ccn(C2OC(COP(=O)(O)O)C(O)C2O)c(=O)n1 (stereo unspecified) |  | inconclusive: 2 µM [inhibitor, full curve]
62 | COc1ccc(N(C(=O)c2snc(C(N)=O)c2N)C(C(=O)NCc2ccc(F)cc2)c2ccc(O)cc2)cc1 (stereo unspecified) |  | inconclusive: 39.8 µM [inhibitor, single point]
63 | O=C(Nc1ccc(Cl)cc1)Nc1ccc(N2CCCC2)c(S(=O)(=O)Nc2ccccc2Cl)c1 |  | active: 3.98 µM
64 | CC(=O)N1CCCc2cc(S(=O)(=O)N3CCCC(C(=O)N4CCN(c5cc(C)ccc5C)CC4)C3)ccc21 (stereo unspecified) |  | inconclusive: 2.51 µM [inhibitor, partial curve, poor fit]
65 | Cc1cc(C)n(-c2nc(NCCN(C)C)c3c4c(sc3n2)COC(C)(C)C4)n1 | inactive: -12.1% [at 11.4 µM] | 
66 | COc1cc(C#Cc2c(-c3cncn3C)n(C)c3ccc(-c4cnc(N5CCOCC5)nc4)cc23)cc(OC)c1 | inactive: -19.7% [at 11.4 µM] | 

Reference: PubChem BioAssay AID1745847 (National Center for Advancing Translational Sciences (NCATS), 2022)
